# PMC4336329 (PLoS ONE, 2015)
# Among all 310,000 compounds or so, about 2,200 (0.71%) showed an effect of 50% or more. The effect is printed as a negative number. Some of the results follow.
# Biological target: human ether-à-go-go-related gene (hERG) potassium channel (human, UniProt Q12809)
# Assay: primary screen, population patch clamp on CHO cells stably expressing hERG
# Chain of human ether-à-go-go-related gene (hERG) potassium channel (Q12809 whole entry, looked up): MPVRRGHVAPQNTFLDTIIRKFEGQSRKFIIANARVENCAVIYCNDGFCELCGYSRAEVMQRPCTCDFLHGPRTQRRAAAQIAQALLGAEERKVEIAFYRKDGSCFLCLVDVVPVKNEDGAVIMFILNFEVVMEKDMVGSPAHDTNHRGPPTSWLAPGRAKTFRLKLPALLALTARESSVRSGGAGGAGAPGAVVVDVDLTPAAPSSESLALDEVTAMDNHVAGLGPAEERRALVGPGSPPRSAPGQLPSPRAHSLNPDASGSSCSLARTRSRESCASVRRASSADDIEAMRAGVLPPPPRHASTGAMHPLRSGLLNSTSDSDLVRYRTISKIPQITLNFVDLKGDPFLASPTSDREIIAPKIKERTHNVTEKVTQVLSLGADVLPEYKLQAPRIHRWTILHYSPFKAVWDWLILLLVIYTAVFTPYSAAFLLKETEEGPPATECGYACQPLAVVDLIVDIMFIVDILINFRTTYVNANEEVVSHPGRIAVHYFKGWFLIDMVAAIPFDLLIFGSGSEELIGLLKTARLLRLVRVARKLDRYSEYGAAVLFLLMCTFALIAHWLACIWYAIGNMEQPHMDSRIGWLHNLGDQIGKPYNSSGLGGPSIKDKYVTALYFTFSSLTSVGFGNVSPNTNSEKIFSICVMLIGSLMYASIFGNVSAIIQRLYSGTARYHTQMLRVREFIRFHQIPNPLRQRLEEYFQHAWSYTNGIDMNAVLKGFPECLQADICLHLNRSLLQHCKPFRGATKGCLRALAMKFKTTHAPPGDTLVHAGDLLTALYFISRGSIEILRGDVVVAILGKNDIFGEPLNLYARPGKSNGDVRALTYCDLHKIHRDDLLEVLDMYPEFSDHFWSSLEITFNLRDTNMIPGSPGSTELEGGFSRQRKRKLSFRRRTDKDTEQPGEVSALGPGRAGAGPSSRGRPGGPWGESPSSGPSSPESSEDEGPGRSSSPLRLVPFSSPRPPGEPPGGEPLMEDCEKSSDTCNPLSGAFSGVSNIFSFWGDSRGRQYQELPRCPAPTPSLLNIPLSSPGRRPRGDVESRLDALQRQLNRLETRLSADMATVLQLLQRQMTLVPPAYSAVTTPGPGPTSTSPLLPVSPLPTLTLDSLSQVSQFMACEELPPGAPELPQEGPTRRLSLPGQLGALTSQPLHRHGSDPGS
row,Structure (SMILES),"hERG current change (%, negative = inhibition) at 1uM [%]"
1,O=C(Oc1ccc(Cl)cc1)N1CCOCC1,13.3
2,COc1ccc2cc3[n+](cc2c1OC)CCc1cc2c(cc1-3)OCO2.Cl,12
3,COC(=O)c1ccc(NC(=O)c2ccc(NC(=O)c3ccco3)cc2)cc1,20.7
4,C[N+](C)(C)CCOP(=O)([O-])OP(=O)([O-])OC[C@H]1O[C@@H](n2ccc(N)nc2=O)[C@H](O)[C@@H]1O.[Na+],13.3
5,CCCCNc1nc(NC)nc(Cl)c1SC,7.23
6,CC(C)n1c(C(=O)OCC(=O)NCc2ccc3c(c2)OCO3)cc2sccc21,22.5
7,CCc1ccc(N(CC(=O)NCc2ccco2)C(=O)CCC(=O)Nc2nccs2)cc1,9.83
8,CCOC(=O)CC1C(=O)NCCN1S(=O)(=O)c1ccc(Cl)cc1 (stereo not shown),-3.23
9,COc1ccc(NC(=O)n2ncc3cc(Cl)ccc32)cc1OC,21.5
10,CCCc1cc(=O)[nH]c(SCC(=O)Nc2ncc(S(=O)(=O)c3ccc([N+](=O)[O-])cc3)s2)n1,5.75
11,COc1ccc2[nH]c(=O)c(CN(Cc3cccs3)C(=S)NCC3CCCO3)cc2c1 (stereo not shown),4.53
12,CCc1ccc(NC(=O)N(CCN2CCOCC2)Cc2ccc3c(c2)CCCN3CC)cc1,-4.1
13,CN1CCN(C(=O)/C=C/c2ccc(Cl)cc2)CC1,-10.4
14,O=C1CN(C(=O)NCCC(=O)NC2CCCCC2)c2ccccc2N1,-0.472
15,COc1cccc(C2=CC(=O)CC(C)(C)C2)c1OC,3.81
16,O=C(CSc1nc2cc(Cl)ccc2s1)c1ccco1,8.73
17,CCOc1ccc(NC(=O)C2CCCN2C(=O)NC2CCCCC2)cc1 (stereo not shown),4.63
18,Cc1cccc([C@@H]2[C@@H]3C(=O)N(Cc4ccccc4)C(=O)[C@@H]3[C@]3(Cc4ccccc4)C(=O)N(c4ccc(C(F)(F)F)cc4)C(=O)N23)c1,7.92
19,CCCCc1nc(N2CCNCC2)c(C#N)c2c1CSC(C)(C)C2,-22.2
20,COc1ccc(S(=O)(=O)N2CCCC(C(=O)NC3CC3)C2)cc1Cl (stereo not shown),14
21,c1ccc(N2CCN(c3nnnn3-c3ccccc3)CC2)cc1,-0.0293
22,O=C1N(Cc2ccc(F)cc2Cl)c2ccccc2C12OCCCO2,-0.0384
23,COc1ccccc1N(CC(=O)NCCc1ccccc1)S(C)(=O)=O,16.5
24,COc1ccccc1N1CCN(C(=O)CN(C)S(=O)(=O)c2cc(C)ccc2OC)CC1,5.55
25,COc1ccc(C2=NN3C(C2)c2ccccc2OC32C(=O)N(C)c3ccccc32)cc1 (stereo not shown),6.07
26,CNC(=S)NNC(=O)c1ccc2c(c1)OCO2,13.4
27,CC1CCN(S(=O)(=O)c2cccc(C(=O)Nc3ccccc3)c2)CC1,-1.01
28,NC(=O)C1CCN(c2ccc([N+](=O)[O-])cc2Cl)CC1,14.5

row,Structure (SMILES),"hERG current change (%, negative = inhibition) at 1uM [%]"
1,Cc1nc(NCc2ccc3c(c2)OCO3)c2nnn(Cc3ccccc3)c2n1,13.3
2,CCOC(=O)c1cc(NC(=O)OC)c(C)nc1C,9.79
3,Cn1nccc1C(=O)N1CCCC(N2CCN(Cc3ccc4c(c3)OCO4)CC2)C1 (stereo not shown),7.44
4,COc1ccc(CCN2CC(C(=O)NCCN3CCNC3=O)CCC2=O)cc1 (stereo not shown),5.52
5,c1ccc(N2CCN(Cc3nnnn3C3CCCCC3)CC2)cc1,8.27
6,CC(C)(C)OC(=O)N1CC(O)CC1C(=O)OCC(=O)c1ccccc1 (stereo not shown),4.69
7,O=C(Nc1ccc(N2C(=O)C3C4C=CC(C4)C3C2=O)cc1Cl)c1cccs1 (stereo not shown),9.99
8,CCOCCCNCC(=O)Nc1ccccc1N1CCOCC1.O=C(O)C(=O)O,-5.77
9,O=C(Nc1ccc(-c2n[nH]c(=S)o2)cc1)c1ccccc1Br,15
10,O=C(Cc1ccc(-n2cccc2)cc1)NCc1cccs1,3.78
11,Cc1ccc(S(=O)(=O)N2[C@@H](c3ccc(Cl)cc3)C(C(=O)O)=CC[C@H]2c2cccc(C)c2)cc1,15.3
12,COc1ccc(CCN2C(=O)CC(NCCc3ccc(S(N)(=O)=O)cc3)C2=O)cc1OC (stereo not shown),13.9
13,CCC1CSC(Nc2ccc(C(=O)/C=C/c3ccc(Br)cc3)cc2)=N1 (stereo not shown),4.9
14,C/C(=N\NC(=S)NC1CCCCC1)c1ccc(O)cc1,-4.36
15,Cc1ccc(N2C(=O)CC(Nc3cccc4ccccc34)C2=O)cc1 (stereo not shown),17.9
16,O=C(NCCCn1ccnc1)/C(=C\c1cccs1)NC(=O)c1ccccc1,-19.1
17,CC(=O)Oc1ccccc1C1OC(=O)c2ccccc2N1C(C)=O (stereo not shown),10.7
18,COc1ccccc1N1CCN(CC(=O)NCCc2ccc(S(N)(=O)=O)cc2)CC1,6.5
19,O=C(N/N=C/c1ccc(N2CCCCC2)o1)c1ccccc1[N+](=O)[O-],16.3
20,Cc1ccc(C(=O)Oc2ccccc2C(=O)N2CCOCC2)cc1,8.54
21,O=C(c1ccc(CS(=O)c2ccccc2Cl)o1)N1CCOCC1 (stereo not shown),5.28
22,CC(C)(C)c1ccc(S(=O)(=O)Nc2ccc3c(c2)COC3=O)cc1,12.8
23,Cc1nc2scc(C)n2c(=O)c1S(=O)(=O)N1CCN(c2cccc(C(F)(F)F)c2)CC1,9.55
24,O=C1NC(=O)N(CCC2=CCCCC2)C(=O)/C1=C/c1cccs1,11.7
25,CNC(=S)NNC(=O)c1cccn(Cc2cccc(C(F)(F)F)c2)c1=O,15.2
26,Cc1ccc2nc(-c3ccncc3)c(NC3CCCC3)n2c1,-9.73
27,Nc1cc(C(F)(F)F)ccc1OCC1CCCO1 (stereo not shown),8.02
